Test results as given in article PMC3483296.
Residue numbers refer to the chain shown, from its start. Names may count otherwise. No constants are given. Whether binding was seen depends on the method and setting. Some binding calls cover weakened binding; strength is not graded here.

T1: Grr1ΔF (Grr1 lacking the F box) (budding yeast) (UniProt P24814)
T1 sequence: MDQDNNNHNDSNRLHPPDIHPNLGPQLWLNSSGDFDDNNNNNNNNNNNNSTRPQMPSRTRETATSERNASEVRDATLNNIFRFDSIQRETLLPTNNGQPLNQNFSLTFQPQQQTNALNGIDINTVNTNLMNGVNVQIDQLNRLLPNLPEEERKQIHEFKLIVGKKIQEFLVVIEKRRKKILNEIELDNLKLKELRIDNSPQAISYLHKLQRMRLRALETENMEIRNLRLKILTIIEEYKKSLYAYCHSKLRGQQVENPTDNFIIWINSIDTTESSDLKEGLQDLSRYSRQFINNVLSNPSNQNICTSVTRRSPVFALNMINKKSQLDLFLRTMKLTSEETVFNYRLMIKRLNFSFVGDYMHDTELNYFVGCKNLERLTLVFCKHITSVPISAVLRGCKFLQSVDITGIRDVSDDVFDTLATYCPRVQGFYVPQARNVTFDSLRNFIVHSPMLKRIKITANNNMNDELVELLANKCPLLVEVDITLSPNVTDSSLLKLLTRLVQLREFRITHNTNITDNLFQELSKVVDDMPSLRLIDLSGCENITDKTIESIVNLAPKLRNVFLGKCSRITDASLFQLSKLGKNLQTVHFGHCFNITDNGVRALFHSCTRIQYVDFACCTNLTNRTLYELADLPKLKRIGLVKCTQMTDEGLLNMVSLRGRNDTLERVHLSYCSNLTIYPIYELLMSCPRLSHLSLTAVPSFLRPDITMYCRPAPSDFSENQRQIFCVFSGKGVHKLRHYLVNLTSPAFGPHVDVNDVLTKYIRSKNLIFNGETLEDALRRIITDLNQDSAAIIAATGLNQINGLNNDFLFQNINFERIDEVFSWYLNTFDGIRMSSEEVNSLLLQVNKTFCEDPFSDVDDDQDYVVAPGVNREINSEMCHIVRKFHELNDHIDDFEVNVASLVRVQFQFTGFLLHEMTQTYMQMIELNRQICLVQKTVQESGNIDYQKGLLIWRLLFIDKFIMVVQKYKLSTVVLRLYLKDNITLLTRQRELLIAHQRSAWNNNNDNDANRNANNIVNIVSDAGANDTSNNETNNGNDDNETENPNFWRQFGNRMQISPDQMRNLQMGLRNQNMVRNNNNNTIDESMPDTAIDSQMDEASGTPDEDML

T2: Grr1Δ(F+L) (Grr1 lacking the F box and the leucine-rich repeats) (budding yeast) (UniProt P24814)
T2 sequence: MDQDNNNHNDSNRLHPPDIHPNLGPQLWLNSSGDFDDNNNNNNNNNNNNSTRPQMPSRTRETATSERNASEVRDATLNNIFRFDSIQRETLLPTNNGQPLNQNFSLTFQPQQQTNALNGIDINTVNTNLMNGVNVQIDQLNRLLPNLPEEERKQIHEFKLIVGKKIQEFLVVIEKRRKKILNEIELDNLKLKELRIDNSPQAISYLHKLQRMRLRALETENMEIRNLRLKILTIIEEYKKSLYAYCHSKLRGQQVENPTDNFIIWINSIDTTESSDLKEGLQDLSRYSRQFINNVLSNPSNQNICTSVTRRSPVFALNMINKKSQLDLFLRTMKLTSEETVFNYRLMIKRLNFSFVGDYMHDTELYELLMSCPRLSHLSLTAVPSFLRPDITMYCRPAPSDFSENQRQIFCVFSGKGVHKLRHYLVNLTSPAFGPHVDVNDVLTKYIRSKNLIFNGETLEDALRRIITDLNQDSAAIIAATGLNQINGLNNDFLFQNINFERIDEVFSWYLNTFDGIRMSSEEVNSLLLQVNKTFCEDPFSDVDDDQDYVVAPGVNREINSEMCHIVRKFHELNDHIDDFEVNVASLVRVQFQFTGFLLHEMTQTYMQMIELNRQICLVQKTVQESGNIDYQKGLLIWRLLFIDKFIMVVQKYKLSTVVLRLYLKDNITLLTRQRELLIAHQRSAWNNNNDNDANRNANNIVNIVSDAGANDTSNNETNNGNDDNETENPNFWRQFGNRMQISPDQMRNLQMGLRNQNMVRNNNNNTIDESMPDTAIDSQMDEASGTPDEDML

T3: Grr1ΔL (Grr1 lacking the leucine-rich repeats) (budding yeast) (UniProt P24814)
T3 sequence: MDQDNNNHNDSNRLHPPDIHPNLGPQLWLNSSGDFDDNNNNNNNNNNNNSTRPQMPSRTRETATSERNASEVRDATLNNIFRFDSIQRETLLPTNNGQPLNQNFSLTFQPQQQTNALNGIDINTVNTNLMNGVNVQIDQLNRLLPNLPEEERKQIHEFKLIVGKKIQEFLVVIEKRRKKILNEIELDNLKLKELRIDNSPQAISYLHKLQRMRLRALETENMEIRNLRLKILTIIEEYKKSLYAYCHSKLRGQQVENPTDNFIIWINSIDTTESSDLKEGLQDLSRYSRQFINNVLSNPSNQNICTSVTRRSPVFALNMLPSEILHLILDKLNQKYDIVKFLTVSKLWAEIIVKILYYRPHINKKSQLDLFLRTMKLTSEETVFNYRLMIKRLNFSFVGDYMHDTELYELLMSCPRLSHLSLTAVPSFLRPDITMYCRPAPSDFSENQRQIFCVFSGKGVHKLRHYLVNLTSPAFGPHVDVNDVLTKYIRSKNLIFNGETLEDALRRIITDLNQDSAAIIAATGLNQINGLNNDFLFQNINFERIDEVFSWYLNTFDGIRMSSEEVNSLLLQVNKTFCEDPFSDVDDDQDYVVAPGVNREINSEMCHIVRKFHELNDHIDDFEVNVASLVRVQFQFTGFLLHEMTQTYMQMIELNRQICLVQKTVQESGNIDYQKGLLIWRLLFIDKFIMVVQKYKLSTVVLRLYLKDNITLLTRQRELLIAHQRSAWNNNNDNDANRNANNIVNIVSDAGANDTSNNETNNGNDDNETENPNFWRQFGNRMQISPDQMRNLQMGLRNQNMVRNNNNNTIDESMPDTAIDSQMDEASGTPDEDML

B1: Gic2 (protein, UniProt Q06648 1-383)
chain: MTSASITNTGNETMNLPQMRSIWLDEDEEAEKLYGLQAQQFMGSDDEENLGITFINSDKPVLSNKKNIELPPLSPNSHPSCHHRRSNSNSAKSKESSSSSSSANKTNHKKVFLKLNLLKKKLLGAQPDIRGKGISTPFDFQHISHADTRNGFQDEQLQEPSSLSTEIKDDYTSSSSKRDSKSLNKAFVTERIPANRESKLISRSHENKTSRLSVARSISVTSSNYSKNTQGNNHSINGRVVSTSTMATSIFEYSPNASPKQFKNKSHALGHRYTNSTDSSESSLDFLKNYNFPTLLEDKPILDFLPRSQRSSAYRSLLETPNSNKDSAKAFFPSRQSPLPKRRNSIATPSPQSKFSYSDSPVNHRKSFDDVLYSFNQLEPLQT
B2: Pfk27 (protein, UniProt Q12471 1-397)
chain: MGGSSDSDSHDGYLTSEYNSSNSLFSLNTGNSYSSASLDRATLDCQDSVFFDNHKSSLLSTEVPRFISNDPLHLPITLNYKRDNADPTYTNGKVNKFMIVLIGLPATGKSTISSHLIQCLKNNPLTNSLRCKVFNAGKIRRQISCATISKPLLLSNTSSEDLFNPKNNDKKETYARITLQKLFHEINNDECDVGIFDATNSTIERRRFIFEEVCSFNTDELSSFNLVPIILQVSCFNRSFIKYNIHNKSFNEDYLDKPYELAIKDFAKRLKHYYSQFTPFSLDEFNQIHRYISQHEEIDTSLFFFNVINAGVVEPHSLNQSHYPSTCGKQIRDTIMVIENFINHYSQMFGFEYIEAVKLFFESFGNSSEETLTTLDSVVNDKFFDDLQSLIESNGFA
B3: She3 (wild type) (protein, UniProt P38272 1-425)
chain: MSDQDNTQTSSSKLAPHHNIFMANLESSPTKDRNTSSQNASSSRVIESLHDQIDMLTKTNLQLTTQSQNLLSKLELAQSKESKLLENLNLLKNENENLNSIFERKNKKLKELEKDYSELSNRYNEQKEKMDQLSKLAKNSSAIEQSCSEKLQNMEVNYNSLLESQNLYRDHYSDEISKLNEKIGLLELELSNQNLNYGSDTSSNSDIELNLNKFNDSVKDLKSLETEKDSKLSKIITHSLDELNLQSWLNLYQTNENLISTFAEKMDLKDVLKRNDEKISNKGAVVQTLKKNVQTQVESNNADALSSNNAQDMLPIKMVKLRKTPNTNDSSSNGNSSNNKRRSFYTASPLLSSGSIPKSASPVLPGVKRTASVRKPSSSSSKTNVTHNNDPSTSPTISVPPGVTRTVSSTHKKKGNSMVVHGAQS
B4: She3 (S199P) (protein, UniProt P38272 1-425)
chain: B3 chain with S199P
B5: She3 (S202R) (protein, UniProt P38272 1-425)
chain: B3 chain with S202R

Assays:
Assay in all cases: two-hybrid; Gal4 system; Grr1 forms as baits in pAS2 (PJ69-4a) mated with PJ69-4α cells holding the prey plasmids (Gal4 activation domain fusions); interaction read as growth of diploids on CM-Trp-Leu-His-Ade
[1] = molecular target: T1, Grr1ΔF (Grr1 lacking the F box) (budding yeast)
[2] = molecular target: T2, Grr1Δ(F+L) (Grr1 lacking the F box and the leucine-rich repeats) (budding yeast)
[3] = molecular target: T3, Grr1ΔL (Grr1 lacking the leucine-rich repeats) (budding yeast)

Binder	binding [1]	binding [2]	binding [3]
B1	binds	no binding	no binding
B2	binds	no binding	no binding
B3	binds	no binding	no binding
B4	no binding	–	–
B5	no binding	–	–
